# Measurements from PubChem BioAssay (NCI).
# Some structures have more than one record in an assay (separate samples or runs), and their calls can disagree.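 Cell lines were cultured in 96-well plates, exposed to a single compound concentration, and assessed for percent growth 48 hours later.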 Some entries of the source have several records that differ or are many. Only these are listed. How the source made its calls: active means growth percent below 10; inactive means the rest. An entry can have further records. This drug was run again and again over the years, at the concentration stated with the values; each value is one run. Signs of the kind (2×) say how often a value occurs here.
# Tested on: DU-145 prostate
# Assay: NCI-60 one-dose screen, 48 h (100 = growth as untreated, 0 = no growth, -100 = all killed)
# Conditions: 0.25 µM
smiles,measurement,setting,value
COc1cccc2c1C(=O)c1c(O)c3c(c(O)c1C2=O)C[C@@](O)(C(=O)CO)C[C@@H]3OC1CC(N)C(O)C(C)O1 (stereo not given in full),growth,runs of 2006,active: -8.78% and inactive: 13.4%
same,growth,runs of 2007,"inactive: 14, 24.6, 10.2, 14.1, 11.4, 21.3, 22.5, 28.8 (2×), 36.3, 11.8, 13.2, 31.1, 22.1 (2×), 35, 24.7, 15.9, 35.4, 57.2, 24.3, 46.4, 10.7, 28, 22, 39.2, 40.1, 50.5, 33.5, 15.7, 17.2, 23.7, 20% and active: -9.77, 9.07, 3.29, -39, 5.2, 1.01%"
same,growth,runs of 2008,"inactive: 30.5, 22.9, 28.7 (2×), 26.2, 21.3, 34, 27.2, 28.1, 30, 25.6, 26.8, 29.6, 23.6, 32, 27.6, 10.9, 12.6, 14.7 (2×), 15, 23.4 (2×), 19.9, 109, 26.3, 12.2, 22.2, 19.8, 17.2, 13.1, 15.7, 16.4, 31.4, 36.8, 34.8, 52.6, 29.1, 47.1, 44.5, 11.9, 20.5, 21.4, 15.5, 23.5% and active: 5.49, 9.03, 2.46, 9.82, 8.66, 7.75, 6.96, 6.44, 9.74, 8.23%"
same,growth,runs of 2009,"inactive: 16.9, 14.9, 23.1 (2×), 18.7 (2×), 12.8, 28.6, 28.5, 22.2, 26.8, 27.7, 30.7, 26.7, 19.4 (2×), 27.1, 23.7, 31.8, 30.3, 18, 26.4, 26.3, 19, 16.1, 19.3, 24.1, 20, 24.6, 32.8, 21.4, 32, 15.1, 30, 23.9, 13.5, 24.2 (2×), 20.9 (2×), 34, 31.3, 24.9, 17.9 (2×), 16.7, 35.5, 60.9, 52.7, 31, 38.5, 34.8, 21.9% and active: 8.54, -34.2, 5.7, 2.16, 9.78, -2.51, -17.6%"
same,growth,runs of 2010,"inactive: 41.7, 35.5, 34.4, 28.6, 36.3, 49, 32.9 (2×), 39.4, 47.1, 31.4, 28.2, 27.2 (2×), 26.9, 18.7, 18.8, 31.7, 12.6, 20.7, 12.1, 25.7, 14.8, 13.2, 30.6, 35.3, 26.7 (2×), 19.8, 30.1, 24.9, 28.1, 13.6, 38.4, 20.9, 27.3, 14 (2×), 36.7, 28.9, 23, 29.1, 25.3, 22.4, 25.5, 30.4, 29, 26.8, 22% and active: 5.51%, 3.06%, 2.73%"
same,growth,runs of 2011,"inactive: 29, 31.3 (2×), 32.3 (3×), 28 (3×), 38.6, 27.6, 20.5, 30.3 (2×), 26.7, 38.3, 33.7, 31.7, 39.8, 37.2 (2×), 39.2, 36.7, 34.4, 30.8, 27.4, 26.1, 25, 23.6, 22.3, 21.6, 22.4 (2×), 22, 35.1, 37.1 (2×), 36.4, 38.7, 20.8, 18.6, 23.5, 23.7, 24.4, 14.8, 26.8, 10.5, 29.1, 17.9, 30, 24.3, 21%"
same,growth,runs of 2012,"inactive: 31.7 (2×), 19.1, 19.8, 20.7 (2×), 28.9, 40.4, 26.1, 22.2 (2×), 21, 18.6 (2×), 21.9, 12.8, 23.9 (5×), 22.5, 16.8, 23.1, 22.9 (2×), 21.6, 30.4 (2×), 33, 24.6, 25, 24.9, 22, 34.3, 27.1, 24.3 (2×), 26.8 (2×), 28, 25.6, 19, 24.4, 32.8, 31.4, 39.2, 51.5 (2×), 41.7, 60.5, 45.5, 44.1, 53.7, 47.2, 62.6, 58.9, 21.5 (2×), 30 (2×), 26.2, 26.6, 20, 29.2, 29.9, 21.4, 23.4% and active: 3.61%"
same,growth,runs of 2013,"inactive: 11.7, 26.6, 30.1 (2×), 32, 30.6, 29.3, 29.6, 26.2, 38.3, 31.2 (2×), 27, 36, 37.6, 28.7 (2×), 41.2, 36.4, 27.7, 36.3 (2×), 28.2 (2×), 42.1, 30.5, 21, 38.8, 28.9 (2×), 41.7, 37.4, 29.2 (2×), 37.3, 29.7, 38.1, 24 (2×), 30.4 (2×), 27.6 (2×), 24.2 (2×), 32.3, 22.3, 32.4, 33.5, 24.8, 34.3, 33.2, 38, 21.9, 13.5, 24.9, 22.5 (2×), 24.4, 29.5, 23.4, 28.4, 21.1, 24.1, 27.3, 30%"
same,growth,runs of 2014,"inactive: 24.9 (2×), 24.6, 22.2, 13.6, 20.5 (2×), 21.6 (2×), 18.8, 21.5, 19.3, 25.9 (3×), 22.1 (4×), 26.8, 27, 16.8, 27.7, 26.1 (3×), 25.2 (2×), 26.5, 27.5, 27.1 (2×), 32.4, 29, 24.1, 23.9 (2×), 28.2, 26.3, 28.1, 24.8, 27.6, 27.3, 24, 28.5, 25.7 (5×), 29.2, 30.6, 19.4, 18.6 (2×), 22.9 (2×), 24.7 (2×), 24.3, 21.1, 22.6, 23.7, 23.4 (2×), 25.1, 31.1, 21.4, 33, 26, 32.1, 36.7, 30.8, 26.2, 22.3% and active: 8.28%"
same,growth,runs of 2015,"inactive: 31.6, 28.9 (2×), 23.1, 24.4, 21.9, 25.1, 31.1, 26.9 (2×), 24.9 (3×), 24.7 (2×), 24 (2×), 29.1 (2×), 30.9, 39.5, 23, 21, 21.5, 20.8, 22.3, 22.2 (3×), 22.6 (2×), 34.4, 30.6, 29.7, 25.5 (2×), 27.1, 26.8, 24.6 (2×), 23.7, 20.2, 18.8, 21.1, 24.8, 24.1 (3×), 25.7 (2×), 27.5, 27.2, 22, 22.5, 30.5, 20.5, 20, 19.8, 50.8, 27, 28, 25.2 (2×), 25.3, 20.9, 33.6, 33.9, 30, 28.2, 27.6, 26.6, 23.3, 28.6, 30.3, 24.3, 28.7 (2×), 32.2, 38.7, 26, 35, 36.7, 35.9%"
same,growth,runs of 2016,"inactive: 31, 28.6, 26.2, 35.9, 22.3, 28.4, 27.1, 24.3 (2×), 24, 21.9, 23 (2×), 20.9, 19.4, 23.1, 25.5, 17.7, 22.5, 18.1 (2×), 19.2, 23.5, 20.4, 28.1, 22.6, 26.7 (2×), 24.2 (2×), 23.6, 18.8, 26.1, 28, 31.3, 35.7, 40.1, 32.2 (2×), 29.2, 25.6, 22.8, 27.7, 27.2, 28.5, 31.7, 26.3, 33.5, 24.7, 33.6, 30.5, 43.7, 37, 36, 33, 39.8, 38.8, 43.3, 39, 34.8, 39.4, 40, 47.9, 41.2, 39.6, 40.3, 33.3, 30.3, 33.7, 31.6 (2×), 30.8, 38, 30.7%"
same,growth,runs of 2017,"inactive: 34.3, 33, 29.3, 31.4, 32.1, 28.4, 27.3, 23, 21.3 (2×), 25.9 (2×), 24.7 (2×), 23.5 (3×), 22.9, 20.5 (2×), 20.9 (2×), 23.4 (3×), 19.3, 22.6 (4×), 24.2, 23.7, 24.9, 26.2 (2×), 22.3, 28.7, 25.6, 23.1 (2×), 30.1 (2×), 30.8, 21.6, 26.3 (2×), 27.5 (2×), 18.3, 20.4, 21.9, 26.7 (2×), 23.3 (2×), 22.5, 15.6, 23.6 (2×), 24 (2×), 22, 19.2 (2×), 18.7 (2×), 19.9, 31.5, 32.2 (2×), 24.6, 25.1, 22.1, 29, 29.9, 30, 26.1, 28, 31, 37, 32.7%"
same,growth,runs of 2018,"inactive: 29.7, 31.7, 27.7, 28.8 (2×), 30.3, 28.9, 24 (3×), 26 (2×), 26.9, 26.6 (2×), 29.2, 31.2 (2×), 30.6, 36.2, 34.7, 39.7, 30.5, 29 (3×), 27 (2×), 26.1, 22.3, 30.4, 34.4, 30.1, 26.3 (2×), 23.7 (2×), 27.3, 28.2, 23, 24.1, 22.1, 21.1, 25, 24.3, 25.1, 29.3, 27.1, 25.5, 27.4, 28.1, 24.8, 33.6, 20.2%"
same,growth,runs of 2019,"inactive: 18.6, 11.8, 11.9, 17.7, 14.9, 23.4, 23.1, 14.8, 16.4, 15.9, 17.9 (2×), 25.5, 26.3 (2×), 19.9, 22.1, 16, 16.8, 14.6, 15, 17.2, 18.1, 12.6 (2×), 19.1, 16.7, 18, 20.7, 19.4, 16.1, 22.6, 25.6 (2×), 23.5, 23.6, 26.2, 25.9, 21, 31.3, 20.2%"
same,growth,runs of 2020,"inactive: 19.1, 22.4, 20.9, 19.3, 22.2, 22, 27.2, 21, 27.6, 22.5, 24.2, 28.9, 22.9, 26.7 (2×), 47.3, 25.7, 37.5, 30.1, 26.6, 30.8, 25.9, 31.7%"
